The record followed here is patent US20050163773A1, “Methods and pharmaceutical compositions for dopaminergic modulation of t-cell adhesion and activity” (priority 2001, published 2005).

Molecules are shown by their SMILES.

This experiment has as its system Jurkat T-cell leukemia cells. Nature of the experiment: Proliferation of Jurkat T-cell leukemia cells (CyQuant). Format: cell-based, human. As to conditions: 48 hours. The method, then: FIGS. 18A-C depict the proliferation of resting normal human and cultured Jurkat T-cells induced by physiological concentrations of DPAT. […] Numbers of T-cells were evaluated using the CyQuant cell proliferation assay kit (Molecular Probes), according to the manufacturer instructions. FIG. 18A represents a calibration of the CyQuant cell kit, showing the linear relationship between the fluorescent intensity and untreated human T-cell number. Note the similar maximal enhancement of T-cell proliferation with 10^−10M DPAT in purified normal human (18B) and cultured Jurkat T-cells (FIG. 18C).

For the molecule `CCCN(CCC)C1CCc2ccc(O)cc2C1` (centres unmarked) [DPAT, 7-Hydroxy-DPAT], the “DPAT concentration of maximal enhancement of proliferation, Jurkat T-cells” value is 10^−10 M. Besides, the “proliferation of Jurkat T-cell leukemia cells relative to untreated cells” value (DPAT 10^−8 M to 10^−10 M) is recorded as “up to 5 times that of untreated cells”.
